Test results as given in PubChem BioAssay AID1508623 (National Center for Advancing Translational Sciences (NCATS), 2021).
The whole screen tested about 48,000 compounds, of which about 450 (0.94%) were called active. Not shown: some 19% with an inconclusive outcome. Calls come from the whole dose curve; as a rule, active = well fitted inhibition curve with a large enough effect; inconclusive = small, poorly fitted or top-dose-only effect; inactive = no such curve, though single readings can be large or run the other way. The list shows a part of the results.

Assay: Primary qHTS for Identification of Small Molecule Inhibitors of Huntingtin Promoter Activity; note: nearly all actives have a fitted effect of over 50% in size
Conditions: HEK293 HTT promoter firefly luciferase reporter (activity 0% = vehicle and -100% = no light), 24 h; series mostly up to 57.5 µM; activity change, negative = inhibition: at the top concentration
In short: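 HEK293 cells carrying firefly luciferase reporters were seeded at 2,500 per well in Opti-MEM and cultured for 24 h. They were then treated with compounds at up to 57.5 uM final for 24 h at 37 degrees C before Dual-Glo luminescence readout.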

Activity change, negative = inhibition, inactive:
CCCc1cc(C(N)=S)ccn1
Cc1ccc(-c2noc(CN(C(=O)c3ccc(C(C)(C)C)cc3)C(C)C)n2)cc1 -3.59%
O=S(=O)(c1ccccc1)n1nc(-c2ccc(Cl)cc2)nc1NCc1ccc(F)cc1 -34.5%
COc1cccc(NC(=O)Cn2c(=O)c3cccn3c3ccc(F)cc32)c1 -18.5%
COc1cccc(-c2nc(SCC(=O)NCc3ccccc3)c3c(=O)n(C)c(=O)n(C)c3n2)c1 6.59%
Cc1ccc(CCNC(=O)CCS(=O)(=O)c2ccc3c(c2)oc(=O)n3C)cc1 -4.79% [at 11.5 µM]
COc1cccc(N2CCN(S(=O)(=O)c3ccc(-c4cc(C(F)(F)F)on4)s3)CC2)c1 5.13%
CCOc1ccccc1NC(=O)Nc1ccccc1OCc1cc(=O)n2ccccc2n1 10.2%
Cc1ccc(CCNC(=O)c2ccc(CS(=O)(=O)Cc3ccc(Cl)cc3)o2)cc1 0%
CN(CC(=O)NCc1ccc(Cl)cc1)S(=O)(=O)c1ccc2c(c1)c(=O)n(C)c(=O)n2C -4.67%
CCOc1ccccc1NC(=O)Cn1c(=O)n(-c2ccc(C)c(C)c2)c(=O)c2c(C)c(C(=O)N(C)C)sc21 6.78%
COc1cccc(-c2nnc(SCC(=O)N3CCc4ccccc43)o2)c1 -6.01%
CCS(=O)(=O)c1c(S(=O)(=O)CC)c2cc(C(C)(C)C)ccn2c1C(=O)c1ccc(F)cc1 -24.3%
Cc1cc2c(cc1C)NC(CC(=O)Nc1cccc(C)c1C)C(=O)N2 (stereo not given) -9.5%
CC(=O)Nc1ccc(C(=O)Nc2ccccc2N)cc1 161%
CCN(Cc1ccccc1)C(=O)CN1C(=O)COc2ccc(S(=O)(=O)N3CCOCC3)cc21 0.0456%
Cc1ccc2oc(=O)c(-c3nc(-c4cccs4)no3)cc2c1 31%
COc1ccc(-n2cnc3cc(C(=O)NCCC4=CCCCC4)ccc32)cc1 -7.15%
COc1cc2c(Nc3ccc(NC(=O)c4ccccc4)cc3)ncnc2cc1OCCCN1CCOCC1 4.69%
COC(=O)c1ccccc1NC(=O)Cc1nc(-c2ccc(OC)cc2)no1 -16.9%
O=C(Nc1cccc(C(=O)OCc2cc(=O)n3ccsc3n2)c1)c1ccc(F)cc1 3.93%
CCOCCCNC(=O)CCC(=O)NNc1nc2ccccc2c2nc(C)nn12 -6.9%
Cc1nc2nc(SCC(=O)NCCc3ccc(Cl)cc3)nn2c(C)c1Cc1c(F)cccc1Cl -8.54%
Cc1ccc(NC(=O)C2CCCN2S(=O)(=O)c2ccc3c(c2)n(C)c(=O)c(=O)n3C)cc1 (stereo not given) -13.6%
CCCOc1ccc(C(=O)Nc2cccc(NC(=O)c3ccc(Cl)cc3Cl)c2)cc1 -9.73%
Cc1nn(CC(=O)NCc2ccco2)c(=O)c2nn(-c3ccccc3)c(C)c12 -7.56%
CC(=O)N1CCc2cc(CNS(=O)(=O)c3ccccc3C(F)(F)F)ccc21 7.8%
CCOc1cccc(C2Oc3nc(SC)nnc3-c3ccccc3N2C(C)=O)c1OC (stereo not given) -4% [at 11.5 µM]
Cc1cc(C)cc(NC(=O)Cn2c(C)cc(C)c(C#N)c2=O)c1 -3.55%
O=C(CSc1nc2ccccc2n1Cc1cccc(C(F)(F)F)c1)NCc1ccccc1 -20.4%
CC(=O)Nc1ccc(NC(=O)c2c(-c3ccccc3)noc2C)cc1 -1.08%
O=C(O)c1ccc(CSc2nc3cccnc3n2Cc2cccc(F)c2)cc1 -0.724%
Nc1ncc(S(=O)(=O)N2CCN(c3ccccc3)CC2)cn1 -9.75%
COC(=O)CC1Oc2ccc(Cl)cc2-n2cc(-c3ccc(C)cc3)nc21 (stereo not given) -3.17%
O=C(CSc1nc2c([nH]c3ccccc32)c(=O)n1-c1ccc(F)cc1)Nc1ccc2c(c1)OCO2 -26.5%
COc1ccc(Cl)cc1NC(=O)c1oc2ccc(S(=O)(=O)N3CCCCC3)cc2c1C -3.51%
COc1ccc(N2CCN(C(=O)c3ccc(CS(=O)c4cccc(C)c4)o3)CC2)cc1 (stereo not given) -18.8%
Oc1c(C(c2cccc(Cl)c2)N2CCOCC2)sc2nc(-c3ccco3)nn12 (stereo not given) 4.24%
CCN1c2ccccc2-c2nc(SCC(=O)Nc3cc(C)c(Cl)cc3OC)ncc2S1(=O)=O -41%
Cc1ccc(C)c(N2CCN(c3nc4ccccc4n4nnnc34)CC2)c1 18.1%
O=C(COc1ccc(F)cc1)NCc1ccc2c(c1)CCN2C(=O)c1ccc(F)cc1 -31.2%
COc1ccc(CCNC(=O)c2c3c(nc4ccccc24)C(=O)N(C2CCCCC2)C3)cc1OC -22%
O=C(Nc1ccc(F)c(Cl)c1)C1CCN(c2ncccn2)CC1 -13.3%
Cc1cc(-n2c(C)nc3ccccc3c2=O)ccc1NC(=O)c1cccc([N+](=O)[O-])c1C -3.46%
Cc1cccc(OCC(=O)Nc2ccc(S(=O)(=O)N(Cc3ccccc3)c3ccccc3)cc2)c1 4.24% [at 11.5 µM]
COC(=O)c1ccccc1NC(=O)C1CCCN(C(=O)c2cnn(-c3ccc(F)cc3)c2-n2cccc2)C1 (stereo not given) -18.7%
COCCn1c(=O)[nH]c2cc(C(=O)N3CCN(c4ccc(F)cc4)CC3)ccc2c1=O -19.1%
Cc1cc(Br)cc(C)c1OCC(=O)Nc1ccc(S(=O)(=O)Nc2ncccn2)cc1 -11.4%
N#C/C(=C\c1ccc(-c2ccc(Br)cc2)o1)C(=O)Nc1ccccc1O 9.13%
Cc1oc(-c2ccccc2F)nc1Cn1c(SCc2cccc(Cl)c2)nc2ccncc21 -24.9%
COc1cc2c(NC3CCN(C(C)C)CC3)nc(C3CCCCC3)nc2cc1OCCCN1CCCC1 -23.4%
CCOCCc1nn2c(=O)cc(COC(=O)c3ccccc3Br)nc2s1 1.79%
Cc1ccc(CNC(=O)C(=O)NCC(c2cccs2)S(=O)(=O)c2ccccc2)cc1 (stereo not given) -27.6%
CCCn1c(=N)c(C(=O)NCc2ccccc2)cc2c(=O)n3cccc(C)c3nc21 -11.3%
CCCC(=O)OCc1cnc(C)c2oc(=O)c(C(=O)Nc3ccc(F)cc3C)cc12 -5.61%
COc1ccc(-c2noc(CNC(=O)c3ccc(OC)cc3OC)n2)cc1 -11.2%
Cc1ccc(C)c(NC(=O)C2CCCN2S(=O)(=O)c2ccc3c(c2)CCCC(=O)N3)c1 (stereo not given) -60.9%
CCC1=Nc2cc(C(=O)N3CCC(C)CC3)ccc2Sc2ccc(C)cc21 -11.9%
COc1cccc(-c2noc(COc3cccc(C)c3C)n2)c1 22.9%
CCOc1ccc(CCNC(=O)C2CC(=O)N(CCc3ccc(OC)c(OC)c3)C2)cc1OCC (stereo not given) -18.6%
